Experimental findings from US20220064294A1 (ARCUS BIOSCIENCES, published 2022) are described below.

For orientation: IC50 means the concentration that inhibits the measured activity by half. Higher therefore signals lower potency. Broadly, the Kd is the constant that tells how readily two partners part at equilibrium. Broadly, the koff is the rate constant with which the complex falls apart. The term kon denotes a measure of how fast the partners come together. High values mean fast association, low ones slow association. As usually defined, the EC50 is the concentration at which the effect is half-maximal. High values mean a need for much substance, low ones an effect from little substance.

The target of experiment [1] is T1, human TIGIT, full length, on cells (human, UniProt Q495A1 22-244).
T1 construct: also called hTIGIT; hTIGIT-CHO
T1 sequence: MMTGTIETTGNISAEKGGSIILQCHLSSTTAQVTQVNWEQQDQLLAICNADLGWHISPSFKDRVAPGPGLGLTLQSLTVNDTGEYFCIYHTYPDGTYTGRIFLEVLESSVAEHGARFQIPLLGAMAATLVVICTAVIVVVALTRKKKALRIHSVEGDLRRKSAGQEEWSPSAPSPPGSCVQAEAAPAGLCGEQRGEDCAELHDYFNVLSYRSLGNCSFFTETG
Put plainly: flow cytometry, inhibition of hCD155-Fc binding to CHO-hTIGIT cells. The method, then:
The activity of Hu24F8.1-IgG1.AA and Hu24F8.2-IgG1.AA to block the interaction of TIGIT with CD155 was analyzed by flow cytometry using CHO cells stably overexpressing human TIGIT (CHO-hTIGIT) and human CD155-Fc fusion recombinant soluble protein (hCD155-Fc), as described in Example 1. […] The IC₅₀ for Hu24F8.1-IgG1.AA to block the TIGIT-CD155 interaction was 0.68 nM, and for Hu24F8.2-IgG1.AA it was 0.67 nM.
In general terms: A flow cytometer gives signals particle by particle.

Experiment [2] deals with T2, hTIGIT-His (human).
T2 construct: also called His-tagged human TIGIT protein extracellular domain; soluble hTIGIT-His
T2 chain: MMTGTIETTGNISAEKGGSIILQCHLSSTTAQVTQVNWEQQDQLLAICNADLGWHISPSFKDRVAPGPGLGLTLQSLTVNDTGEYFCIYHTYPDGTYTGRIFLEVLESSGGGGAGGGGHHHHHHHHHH
The experiment can be described thus: SPR, Biacore T200, antibody captured on anti-human IgG chip, hTIGIT-His as analyte. The method, then: (§1) The purified, full-length antibodies Hu24F8.1-IgG1.AA (containing VH1+VL2) and Hu24F8.2-IgG1.AA (containing VH2+VL2), together with the full-length chimera antibody of 24F8 mouse VH+VL and human IgG1/kappa constant domains (Ch24F8), were analyzed by SPR using a Biacore T200 instrument with antibody capture using an anti-human IgG coated chip and soluble hTIGIT-His or cTIGIT-His as the analyte.
(Surface plasmon resonance follows binding to a sensor surface in real time, without labels.)

Experiment [3] deals with T1, human TIGIT, full length, on cells. Put plainly: flow cytometry, endogenous TIGIT on human CD8+ T cells activated with anti-CD3/CD28 beads and rhIL-2. The method, then:
(§2) Binding of antibodies Hu24F8.1-IgG1.AA and Hu24F8.2-IgG1.AA to TIGIT expressed on cell surface was examined by flow cytometry. Cells expressing TIGIT on cell surface were collected and incubated in 100 μL of HBSS Buffer in the presence (or absence) of various concentrations of antibody for 1 hr at 4° C. After washing with HBSS, antibody binding on cells was detected with 2 μg/mL of Alexa488-labeled goat anti-human IgG antibody (ThermoFisher Scientific, Cat #A-11013) for 30 min at 4° C. Cells were then washed and resuspended in PBS and subjected to flow cytometry using a Attune NxT flow cytometer (ThermoFisher Scientific, Waltham, Mass.). GeoMean of fluorescence intensity was obtained for the whole single cell population, and for transient transfection, non-transfected cells were used to gate for the positive binding cell population to obtain percent of positive cells. Data was calculated by GraphPad Prism using the standard 4-parameter curve fitting.
(§3) Binding of Hu24F8.2-IgG1.AA to isolated human CD8⁺ T cells was examined by flow cytometry. CD8⁺ T cells were isolated using the RosetteSep™ Human CD8⁺ T cell Enrichment Cocktail (Stemcell, Cat #15023) following manufacturer recommendation. Cells were then activated with anti-CD3/CD28 beads with 20U/mL rhIL-2 supplements for 7-9 days. […]

Experiment [4] has the same target. The experiment can be described thus: cell-based or functional assay.
For experiment [5] the target is unchanged. Put plainly: flow cytometry, endogenous TIGIT on isolated not-activated human CD8+ T cells. The method, then: as §2, §3
Experiment [6] has as its target T3, cTIGIT-His (cynomolgus monkey).
T3 construct: also called His-tagged cyno TIGIT protein extracellular domain; soluble cTIGIT-His
T3 chain: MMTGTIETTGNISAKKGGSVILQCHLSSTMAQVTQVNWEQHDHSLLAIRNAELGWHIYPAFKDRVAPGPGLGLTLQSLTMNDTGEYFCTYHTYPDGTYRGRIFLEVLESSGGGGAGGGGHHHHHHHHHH
Put plainly: SPR, Biacore T200, antibody captured on anti-human IgG chip, cTIGIT-His as analyte. The method, then: as §1

The target in experiment [7] is T2, hTIGIT-His. The experiment can be described thus: SPR, ProteOn XPR36, antibody captured on Protein A chip at six densities, hTIGIT-His as analyte, 25 C, global 1:1 fit. The method, then:
(§4) Hu24F8.2-IgG1 was analyzed by SPR using a BioRad ProteOn XPR36 instrument with antibody capture using an anti-human IgG coated chip or a Protein A coated chip at six different densities. The analyte was soluble hTIGIT-His (stock solution prepared at 33.3 μM) which was diluted to 33 nM as the highest concentration and tested in triplicate in a three-fold dilution series over Hu24F8.2-IgG1 surface. The running buffer contained 10 mM HEPES, 150 mM NaCl, 0.05% tween-20 and 0.2 mg/mL BSA. All data were collected at 25° C. Data from all six surface densities were globally fit to a 1:1 interaction model using a local Rmax.

For experiment [8], the target named is T2, hTIGIT-His. Put plainly: SPR, ProteOn XPR36, antibody captured on anti-human IgG chip at six densities, hTIGIT-His as analyte, 25 C, global 1:1 fit. The method, then: as §4

B1: Hu24F8.2-IgG1.AA (antibody)
heavy: QVQLQESGPGLVKPSGTLSLTCAVSGYSITSGYSWHWVRQPPGKGLEWIGYVHYSGSTNYNPSLKSRVTISVDKSKNQFSLKLSSVTAADTAVYYCARMDYGNYGGAMDYWGQGTLVTVSS[human IgG1 constant region with changes not spelt out]
light: EIVMTQSPATLSVSPGERATLSCKASQDVRTAVAWYQQKPGQAPRLLIYSASYRYTGIPARFSGSGSGTEFTLTISSLQSEDFAVYYCQQYYSTQWTFGGGTKVEIKRTVAAPSVFIFPPSDEQLKSGTASVVCLLNNFYPREAKVQWKVDNALQSGNSQESVTEQDSKDSTYSLSSTLTLSKADYEKHKVYACEVTHQGLSSPVTKSFNRGEC
notes: IgG1/kappa; also called Hu24F8.2 (VH2+VL2), IgG1/kappa with L234A/L235A
With B1, the IC50 in experiment [1] came to 0.67 nM. In experiment [2], this molecule gave a Kd of 0.176 nM, a koff of 0.00014 s⁻¹ and a kon of 796000 M⁻¹ s⁻¹. The molecule further showed an EC50 in experiment [3] of 0.14 nM. Moreover, in experiment [4], the “EC50 of luciferase reporter activity, TIGIT/CD155 Blockade Bioassay (Jurkat cells overexpressing TIGIT with CD155 aAPC/CHO-K1 cells)” value worked out at 2.78 nM. For the same molecule, the EC50 in experiment [5] was determined as 0.098 nM. In experiment [6], this molecule had a Kd of 1.47 nM, a dissociation rate constant (koff) of 0.000997 s⁻¹ and a kon of 679000 M⁻¹ s⁻¹.

B2: Hu24F8.2-IgG1 (antibody)
heavy: QVQLQESGPGLVKPSGTLSLTCAVSGYSITSGYSWHWVRQPPGKGLEWIGYVHYSGSTNYNPSLKSRVTISVDKSKNQFSLKLSSVTAADTAVYYCARMDYGNYGGAMDYWGQGTLVTVSS[human IgG1 constant region not spelt out]
light: B1 light
notes: IgG1/kappa with wildtype IgG1 constant region; also called Hu24F8.2, wildtype IgG1 Fc
Consider B2, for which, in experiment [7], the Kd worked out at 0.0377 nM, the koff came out at 6.31e-05 s⁻¹ and the kon is 1.67e+06 M⁻¹ s⁻¹. In experiment [8], binding was characterised by a dissociation constant (Kd) of 0.0246 nM, the koff was determined as 5.97e-05 s⁻¹ and the kon came out at 2.42e+06 M⁻¹ s⁻¹.
